# In ChEMBL document CHEMBL4888484, “Replenishing the malaria drug discovery pipeline: Screening and hit evaluation of the MMV Hit Generation Library 1 (HGL1) against asexual blood stage Plasmodium falciparum ,using a nano luciferase reporter read-out” (2022):
# The whole screen tested about 150,000 compounds, of which about 540 (0.36%) showed an effect of 50% or more. The list shows a part of the results.
# Tested on: Plasmodium falciparum
# Assay: Primary screen in NF54 nanoGlo assay, in single point, at 2uM, 72h; a lower Z score goes with more inhibition
# Assay type: functional, Erythrocyte
# Conditions: timepoint 72 hour
Compound,% Inhibition [%],Z score
CNC(=O)C(C)CN(C)C(=O)Nc1ccc(N2CCC(C)C2)cc1 (stereo unspecified),-6,0.49
Cc1ncsc1C(=O)OCc1ncnn1CC(C)C,-3,0.34
Clc1cnc(N2CC[C@]3(CCOC3)C2)c(Cl)c1,-9,1.01
CN1CCN(C)C2(CCN(c3ncccc3C(=O)N3CCCC3)CC2)C1,-18,1.93
O=C(NC1(c2cccs2)CCCC1)c1ccsc1,8,-1.07
COc1cccc(OCCc2ccccc2-c2nnc(C)o2)c1,6,-1.32
CCO[C@@H](C)c1nc(Cc2nc(-c3ccc(OC)cc3)no2)cs1,-5,0.52
CCOC(=O)c1nc(NC2CCCCCC2)c2c(C)noc2n1,5,-0.96
COCCN1CC[C@H](CNS(=O)(=O)c2c(C)cc(C)c3nonc23)C1,8,-1.1
COc1cccc(CNC(=O)N2CCc3c(F)cc(F)cc3C2)n1,-30,3.46
FC(F)(F)c1ccc(CN(CCN2CCOCC2)[C@H]2CCCNC2)cc1,7,-0.89
CCNC(=O)C1=CCN(C(=O)c2cccc(F)c2)CC1,7,-1.18
C#CC(CC)(CC)NS(=O)(=O)c1ccc(C)cc1C,-5,1.06
CN1N=C(C(=O)N[C@H]2CCOc3ccccc32)CCC1=O,-10,1.89
c1ccc(Oc2nc(NCc3ccco3)nc(NCc3ccco3)n2)cc1,-16,1.74
CC(C)(C)c1ccc(NC(=O)c2ccc(C(=O)c3ccccc3)o2)cc1,-3,0.49
CC(=O)Nc1c(-c2ccc(F)cc2)c(C)nn1-c1ccc(C(=O)Nc2cccc(F)c2)cc1,-5,0.93
Cc1cccnc1[C@H](C)NC(=O)CNC(=O)N(C)C,-9,1.68
CCN(C[C@@H]1CCCN2CCCC[C@H]12)C(=O)CCc1cc(OC)no1,-14,1.8
O=C1CN2C(=O)[C@]3(CCN(C(=O)CCC(F)(F)F)[C@H]3c3cccc(c3)OCCCN1)c1ccccc12,-5,0.56
CC(C)CCNC(=O)[C@]1(C)Cn2c(cc3ccccc32)C(=O)N1C1CCN(Cc2ccccc2)CC1,-4,0.58
CCCC(=O)NCC(=O)N1CCC[C@H](N(C)C(=O)c2ccc(C(N)=O)nc2)C1,21,-2.67
Cc1cc(C)c(S(=O)(=O)NCC2CCC(C(=O)N3CCc4ccccc4C3)CC2)c(C)c1 (stereo unspecified),-7,1.22
Cc1ncc(C(=O)N2CCC[C@H](N(CCCN3CCCC3)C(=O)C(C)C)C2)cn1,1,-0.09
NS(=O)(=O)c1ccc(-c2noc(C[C@H]3CCc4ccccc4C3)n2)cc1,1,-0.28
COc1ccccc1CCC(=O)N1CCCCN(C)C(=O)[C@H](C)NC(=O)COc2cc(O)cc(c2)C(=O)NCCC1,-1,0.12
FC(F)(F)c1ccc(-c2c[nH]c([C@@H]3COCCN3C3CCNCC3)n2)cc1,-3,0.52

Compound,% Inhibition [%],Z score
CS(=O)(=O)N(Cc1cccnc1)[C@H]1CCCN(Cc2ccncc2F)C1,-13,1.17
CC1(C)CC(N2C(=O)c3cccc(N4CCCC(C(=O)N5CCN(C(=O)c6ccco6)CC5)C4)c3C2=O)CCO1 (stereo unspecified),13,-1.72
CN(Cc1ccco1)c1ncccc1C#N,-5,0.51
Cc1cc(OCc2nccs2)c2cnn(C)c2n1,-1,0.12
Cc1cc(OCC(=O)N2CCCC[C@@H]2CCN2CCCCCC2)ccc1Cl,-9,1.1
O=C(NCC1CCN(C(=O)c2cccs2)CC1)c1cccs1,9,-1.3
O=C(c1c2c(nc3ccccc13)CCC2)N1CCC[C@H](C(F)(F)F)C1,0,-0.09
CCOc1ccc(S(=O)(=O)N(C)Cc2ccc(Cl)cc2)cc1-c1nc(C(C)C)no1,-2,0.43
CC1CC2CCCCC2N1S(=O)(=O)c1cccnc1 (stereo unspecified),-3,0.43
C[C@H](NCc1cc(O)nc(C2CC2)n1)c1ccc(F)cc1F,-10,1.5
NC[C@H]1CCCN(Cc2cc3cc4c(cc3nc2-c2ccc(Cl)cc2)OCO4)C1,0,-0.03
Cc1cnc(C(=O)NC[C@H]2Cn3cccc3CN2Cc2ccccc2)cn1,-5,0.98
Cc1cccc(NC(=O)C(=O)NCCCc2ccccc2)n1,-11,1.68
Cc1c(NC(=O)N2CCc3n[nH]cc3C2)cccc1N1CCCC1,-9,1.93
C[C@H]1Cc2cc(S(N)(=O)=O)ccc2N1S(=O)(=O)c1ccccc1-c1ccccc1,-10,1.84
O=C(O)[C@@H]1Cc2nc[nH]c2CN1Cc1ccccc1Cn1cccn1,-9,1.16
CN(C)Cc1ccnc(NC(=O)N[C@H]2CCOC23CCCC3)c1,-1,0.13
CN1CC(C(=O)NOCc2ccccc2)C(C(F)(F)F)C1 (stereo unspecified),-3,0.67
CCc1nsc(NCCCc2ncnn2C)n1,-3,0.27
COCCn1cnnc1CCNC(=O)c1cc2c(cc1C)OCCO2,1,-0.1
CCc1noc(-c2cn(C3CCN(C(=O)c4sccc4C)CC3)nn2)n1,-4,0.43
Cc1ccc(F)c(NC(=O)C(=O)NCCCc2nc(C)no2)c1,-3,0.31
CCn1c(COC(=O)c2sc(C)nc2C)nc2cc(S(=O)(=O)N(C)C)ccc21,-6,0.59
COc1ccccc1CNC(=O)c1nc(-c2cn(-c3ccc(Br)cc3)nc2C)no1,-12,1.53
CC1(C)CC[C@H](NC(=O)CCn2cnccc2=O)c2ccccc21,-8,0.69
Cc1cc(C)nc(-n2cc(C(=O)NCC#Cc3ccccn3)c(C(C)C)n2)n1,1,-0.12
